The labels stand for the following.
T1: RBFOX1 RRM RbFoxmut (Fox-RRM*) (Homo sapiens, UniProt Q9NWB1 109-208, R118D;E147R;N151S;E152T)
T1 sequence: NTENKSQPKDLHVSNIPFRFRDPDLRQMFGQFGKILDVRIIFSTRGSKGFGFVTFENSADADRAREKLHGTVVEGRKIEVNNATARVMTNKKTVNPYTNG

B1: GCAGCAA (DNA:RNA)
RNA: GGGAGACCGGAAUUCAGAUUGUCCGCAGCAAUUAAAUCCCGUCGUAGCCACCA
DNA 1: CAATCTGAATTCCGGTCTCCC
DNA 2: TGGTGGCTACGACGGGATT
B2: AUGCCAA (DNA:RNA)
RNA: B1 RNA with G25A, C26U, A27G, G28C
DNA 1: CAATCTGAATTCCGGTCTCCC
DNA 2: TGGTGGCTACGACGGGATT
B3: AAGAGCC (DNA:RNA)
RNA: GGGAGACCGGAAUUCAGAUUGUCCAAGAGCCUUAAAUCCCGUCGUAGCCACCA
DNA 1: CAATCTGAATTCCGGTCTCCC
DNA 2: TGGTGGCTACGACGGGATT
B4: GGCAUAA (DNA:RNA)
RNA: B1 RNA with C26G, A27C, G28A, C29U
DNA 1: CAATCTGAATTCCGGTCTCCC
DNA 2: TGGTGGCTACGACGGGATT
B5: GUUAACC (DNA:RNA)
RNA: B3 RNA with A25G, A26U, G27U, G29A
DNA 1: CAATCTGAATTCCGGTCTCCC
DNA 2: TGGTGGCTACGACGGGATT
B6: CACCCCA (DNA:RNA)
RNA: B3 RNA with A25C, G27C, A28C, G29C, C31A
DNA 1: CAATCTGAATTCCGGTCTCCC
DNA 2: TGGTGGCTACGACGGGATT
B7: CUGGCCG (DNA:RNA)
RNA: B3 RNA with A25C, A26U, A28G, G29C, C31G
DNA 1: CAATCTGAATTCCGGTCTCCC
DNA 2: TGGTGGCTACGACGGGATT
B8: AGAUACC (DNA:RNA)
RNA: B3 RNA with A26G, G27A, A28U, G29A
DNA 1: CAATCTGAATTCCGGTCTCCC
DNA 2: TGGTGGCTACGACGGGATT
B9: AAUUGCG (DNA:RNA)
RNA: B3 RNA with G27U, A28U, C31G
DNA 1: CAATCTGAATTCCGGTCTCCC
DNA 2: TGGTGGCTACGACGGGATT
B10: GUAGGAC (DNA:RNA)
RNA: B1 RNA with C26U, C29G, A31C
DNA 1: CAATCTGAATTCCGGTCTCCC
DNA 2: TGGTGGCTACGACGGGATT
B11: AGGUGUU (DNA:RNA)
RNA: B3 RNA with A26G, A28U, C30U, C31U
DNA 1: CAATCTGAATTCCGGTCTCCC
DNA 2: TGGTGGCTACGACGGGATT
B12: AAUCGGU (DNA:RNA)
RNA: B3 RNA with G27U, A28C, C30G, C31U
DNA 1: CAATCTGAATTCCGGTCTCCC
DNA 2: TGGTGGCTACGACGGGATT
B13: AACGCCA (DNA:RNA)
RNA: B3 RNA with G27C, A28G, G29C, C31A
DNA 1: CAATCTGAATTCCGGTCTCCC
DNA 2: TGGTGGCTACGACGGGATT
B14: GUUCCUA (DNA:RNA)
RNA: B1 RNA with C26U, A27U, G28C, A30U
DNA 1: CAATCTGAATTCCGGTCTCCC
DNA 2: TGGTGGCTACGACGGGATT
B15: CUAUUCU (DNA:RNA)
RNA: B3 RNA with A25C, A26U, G27A, A28U, G29U, C31U
DNA 1: CAATCTGAATTCCGGTCTCCC
DNA 2: TGGTGGCTACGACGGGATT
B16: GAGGAUU (DNA:RNA)
RNA: B3 RNA with A25G, A28G, G29A, C30U, C31U
DNA 1: CAATCTGAATTCCGGTCTCCC
DNA 2: TGGTGGCTACGACGGGATT
B17: AACAUAA (DNA:RNA)
RNA: B3 RNA with G27C, G29U, C30A, C31A
DNA 1: CAATCTGAATTCCGGTCTCCC
DNA 2: TGGTGGCTACGACGGGATT
B18: ACGUUGG (DNA:RNA)
RNA: B3 RNA with A26C, A28U, G29U, C30G, C31G
DNA 1: CAATCTGAATTCCGGTCTCCC
DNA 2: TGGTGGCTACGACGGGATT
B19: GCUUAAU (DNA:RNA)
RNA: B1 RNA with A27U, G28U, C29A, A31U
DNA 1: CAATCTGAATTCCGGTCTCCC
DNA 2: TGGTGGCTACGACGGGATT
B20: UAACUCC (DNA:RNA)
RNA: B3 RNA with A25U, G27A, A28C, G29U
DNA 1: CAATCTGAATTCCGGTCTCCC
DNA 2: TGGTGGCTACGACGGGATT

Changes are numbered by the printed parent chain; changes in the protein carry UniProt numbers. The list shows a part of the results.

The target of the assay is T1, RBFOX1 RRM RbFoxmut (Fox-RRM*). Description: EMSA; HiTS-Eq, 1 nM pool, 10 min; buffer printed only for the single-RNA assays: 10 mM Tris pH 7.5, 150 mM NaCl, 3.4 mM EDTA, 0.001% NP-40, 30 C. To be noted: tags: His6 N-terminal (pET28a); label: 5' 32P. An outline of the steps: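 Purified wild-type or mutant RbFox RRM at increasing concentrations was equilibrated with 1 nM of 5′-radiolabelled RNA carrying 7 randomized nucleotides for 10 min in 50 µL. Unbound RNA was separated by 8% native PAGE and sequenced. Relative association constants came from read-count changes of each RNA species compared with the control reaction, normalised to the cognate motif.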
(A gel shift assay detects complexes by their altered migration in electrophoresis.)
Take B1: the binding signal is 0.0749 KA relative to UGCAUGU. Take B2: the binding signal is 0.0996 KA relative to UGCAUGU. Then B3, with 0.135 KA relative to UGCAUGU; and B4, with 0.117 KA relative to UGCAUGU. For the molecule B5, the binding signal is 0.0736 KA relative to UGCAUGU. Consider B6, for which the binding signal was 0.125 KA relative to UGCAUGU. For the molecule B7, the binding signal was 0.139 KA relative to UGCAUGU. Take B8: the binding signal was 0.0936 KA relative to UGCAUGU.

B9: the binding signal was 0.127 KA relative to UGCAUGU.

On to B10, for which the binding signal was 0.0545 KA relative to UGCAUGU. On to B11, for which the binding signal is 0.114 KA relative to UGCAUGU. B12: the binding signal is 0.108 KA relative to UGCAUGU. Turning to B13, the binding signal is 0.0916 KA relative to UGCAUGU. Then B14, with 0.097 KA relative to UGCAUGU; and B15, with 0.0879 KA relative to UGCAUGU. As to B16, the binding signal was 0.0849 KA relative to UGCAUGU. As to B17, the binding signal is 0.101 KA relative to UGCAUGU. B18: the binding signal was 0.124 KA relative to UGCAUGU. In the case of B19, the binding signal was 0.104 KA relative to UGCAUGU. Take B20: the binding signal is 0.0736 KA relative to UGCAUGU.

The values are drawn from article PMC9911399, “Two distinct binding modes provide the RNA-binding protein RbFox with extraordinary sequence specificity”.
